From the supplement of paper PMC9588766
Values joined by “and” are separate entries in the source; they are usually repeats but may differ in a detail not shown here. Equal entries are not always repeated. Structures can show the parent of a compound that is named as a salt. In all, about 1,900 compounds were measured (“cell viability of compound + 1 nM pemigatinib relative to pemigatinib-only (DMSO) wells”: median about 0.95, lowest 2% from about 0.22 on). The list shows a part of the results.

tested on: PDC-DUC18828; assay: cell viability of compound + 1 nM pemigatinib relative to pemigatinib-only (DMSO) wells (fraction); PDC-DUC18828 is a patient-derived cholangiocarcinoma cell line; higher = less growth inhibition; settings: first compound 1 µM; pemigatinib concentration 1 nM; 72 h
Description: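 Selleck Bioactive library screen in the patient-derived FGFR2 fusion-positive ICC cell line PDC-DUC18828 (500 cells/well). Each compound was tested at 1 uM with 1 nM pemigatinib, in triplicate, for 72 h. Viability was read by CellTiter-Glo and normalised to plate DMSO controls. Value is the paper's averaged normalised viability.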

For `O=C(NCCO[N+](=O)[O-])c1cccnc1` [Nicorandil] + CCN1C(=O)N(c2c(F)c(OC)cc(OC)c2F)Cc2cnc3[nH]c(CN4CCOCC4)cc3c21 [pemigatinib], which cell viability is on record?
The cell viability was 0.936.

How did the cell viability turn out when `C[C@H]1C[C@H]2[C@@H]3CCC4=CC(=O)C=C[C@]4(C)[C@@]3(F)[C@@H](O)C[C@]2(C)[C@@]1(O)C(=O)CO` [Betamethasone] + CCN1C(=O)N(c2c(F)c(OC)cc(OC)c2F)Cc2cnc3[nH]c(CN4CCOCC4)cc3c21 [pemigatinib] was run?
Its cell viability is 0.956.

How did the cell viability turn out when `Oc1ccc(OCc2ccccc2)cc1` [Monobenzone] + CCN1C(=O)N(c2c(F)c(OC)cc(OC)c2F)Cc2cnc3[nH]c(CN4CCOCC4)cc3c21 [pemigatinib] was run?
The cell viability was 1.06.

With `CCOC(=O)Nc1cc(-c2ccc(C)c(NS(C)(=O)=O)c2)nn2c(C)nnc12` [Bromosporine] + CCN1C(=O)N(c2c(F)c(OC)cc(OC)c2F)Cc2cnc3[nH]c(CN4CCOCC4)cc3c21 [pemigatinib] as the compound, how does the cell viability read?
Its cell viability is 1.05.

`Cc1cc2c(F)c(Oc3ncnn4cc(OC[C@@H](C)OC(=O)[C@H](C)N)c(C)c34)ccc2[nH]1` + CCN1C(=O)N(c2c(F)c(OC)cc(OC)c2F)Cc2cnc3[nH]c(CN4CCOCC4)cc3c21 [pemigatinib] was tested. Which cell viability did it give?
Its cell viability is 0.951.

For `C[C@@H]1CCN(C(=O)CC#N)C[C@@H]1N(C)c1ncnc2[nH]ccc12` + CCN1C(=O)N(c2c(F)c(OC)cc(OC)c2F)Cc2cnc3[nH]c(CN4CCOCC4)cc3c21 [pemigatinib], which cell viability is on record?
Its cell viability is 0.912 and 0.924.

`C#CC[C@H](c1nc2cc(Cl)ccc2c(=O)n1Nc1ccccc1)N(CCCN)C(=O)c1cccc(Cl)c1F` + CCN1C(=O)N(c2c(F)c(OC)cc(OC)c2F)Cc2cnc3[nH]c(CN4CCOCC4)cc3c21 [pemigatinib] was tested. Which cell viability did it give?
Its cell viability is 0.281.

Which cell viability does the source give for `COCC[n+]1c2c(n(Cc3cnccn3)c1C)C(=O)c1ccccc1C2=O` [YM155 (Sepantronium Bromide)] + CCN1C(=O)N(c2c(F)c(OC)cc(OC)c2F)Cc2cnc3[nH]c(CN4CCOCC4)cc3c21 [pemigatinib] here?
The cell viability was 0.00992.

How did the cell viability turn out when `O=C(NCCO)c1cccc(-c2cc(Nc3ccc(OC(F)(F)F)cc3)ncn2)c1` + CCN1C(=O)N(c2c(F)c(OC)cc(OC)c2F)Cc2cnc3[nH]c(CN4CCOCC4)cc3c21 [pemigatinib] was run?
Its cell viability is 0.989.

With `COc1ccc([C@]2(C#N)CC[C@@H](C(=O)O)CC2)cc1OC1CCCC1` [Cilomilast] + CCN1C(=O)N(c2c(F)c(OC)cc(OC)c2F)Cc2cnc3[nH]c(CN4CCOCC4)cc3c21 [pemigatinib] as the compound, how does the cell viability read?
Its cell viability is 1.01.

Which cell viability does the source give for `O=S(=O)(O)NC1CCCCC1` [Cyclamic  acid] + CCN1C(=O)N(c2c(F)c(OC)cc(OC)c2F)Cc2cnc3[nH]c(CN4CCOCC4)cc3c21 [pemigatinib] here?
The cell viability was 0.923.

With `O=c1oc2ccccc2c(O)c1Cc1c(O)c2ccccc2oc1=O` [Dicoumarol] + CCN1C(=O)N(c2c(F)c(OC)cc(OC)c2F)Cc2cnc3[nH]c(CN4CCOCC4)cc3c21 [pemigatinib] as the compound, how does the cell viability read?
The cell viability was 0.975.

How did the cell viability turn out when `CS(=O)(=O)N1CCc2c(-c3cnc(N)nc3)nc(N3CCOCC3)nc21` + CCN1C(=O)N(c2c(F)c(OC)cc(OC)c2F)Cc2cnc3[nH]c(CN4CCOCC4)cc3c21 [pemigatinib] was run?
The cell viability was 0.799.

With `CC(=O)[C@]1(O)Cc2c(O)c3c(c(O)c2[C@@H](O[C@H]2C[C@H](N)[C@H](O)[C@H](C)O2)C1)C(=O)c1ccccc1C3=O` [Idarubicin HCl] + CCN1C(=O)N(c2c(F)c(OC)cc(OC)c2F)Cc2cnc3[nH]c(CN4CCOCC4)cc3c21 [pemigatinib] as the compound, how does the cell viability read?
Its cell viability is 0.119.

`CCCOc1ccn2c(C(C)=O)cc(-c3ccccc3S(C)(=O)=O)c2c1` + CCN1C(=O)N(c2c(F)c(OC)cc(OC)c2F)Cc2cnc3[nH]c(CN4CCOCC4)cc3c21 [pemigatinib] was tested. Which cell viability did it give?
The cell viability was 0.946.

With `CC(/C=C1\SC(=S)N(CC(=O)O)C1=O)=C\c1ccccc1` [Epalrestat] + CCN1C(=O)N(c2c(F)c(OC)cc(OC)c2F)Cc2cnc3[nH]c(CN4CCOCC4)cc3c21 [pemigatinib] as the compound, how does the cell viability read?
The cell viability was 0.994.

For `O=C1c2ccccc2C(=O)c2c1ccc(O)c2O` [Alizarin] + CCN1C(=O)N(c2c(F)c(OC)cc(OC)c2F)Cc2cnc3[nH]c(CN4CCOCC4)cc3c21 [pemigatinib], which cell viability is on record?
Its cell viability is 0.933.

How did the cell viability turn out when `Cc1nc(=O)c2cc(CN(C)c3ccc(C(=O)N[C@@H](CCC(=O)O)C(=O)O)s3)ccc2[nH]1` [Raltitrexed] + CCN1C(=O)N(c2c(F)c(OC)cc(OC)c2F)Cc2cnc3[nH]c(CN4CCOCC4)cc3c21 [pemigatinib] was run?
Its cell viability is 0.981.

With `C=CC(=O)Nc1cccc(Oc2nc(Nc3ccc(N4CCN(C)CC4)cc3OC)ncc2Cl)c1` + CCN1C(=O)N(c2c(F)c(OC)cc(OC)c2F)Cc2cnc3[nH]c(CN4CCOCC4)cc3c21 [pemigatinib] as the compound, how does the cell viability read?
The cell viability was 0.966.

Which cell viability does the source give for `O=C(/C=C/c1ccc(O)c(O)c1)OCCc1ccccc1` [Caffeic Acid Phenethyl Ester] + CCN1C(=O)N(c2c(F)c(OC)cc(OC)c2F)Cc2cnc3[nH]c(CN4CCOCC4)cc3c21 [pemigatinib] here?
Its cell viability is 0.865.

`CC(C)CC(CC(=O)NO)C(=O)N[C@@H](Cc1ccc2ccccc2c1)C(=O)N[C@@H](C)C(=O)NCCN` (some centres not stated) + CCN1C(=O)N(c2c(F)c(OC)cc(OC)c2F)Cc2cnc3[nH]c(CN4CCOCC4)cc3c21 [pemigatinib] was tested. Which cell viability did it give?
Its cell viability is 0.971.

For `COc1ccc([C@@H]2CC(=O)c3c(O)cc(O[C@@H]4O[C@H](CO)[C@@H](O)[C@H](O)[C@H]4O[C@@H]4O[C@@H](C)[C@H](O)[C@@H](O)[C@H]4O)cc3O2)cc1O` [Neohesperidin] + CCN1C(=O)N(c2c(F)c(OC)cc(OC)c2F)Cc2cnc3[nH]c(CN4CCOCC4)cc3c21 [pemigatinib], which cell viability is on record?
The cell viability was 0.974.

Which cell viability does the source give for `CC(=O)OCC(CCn1cnc2cnc(N)nc21)COC(C)=O` [Famciclovir] + CCN1C(=O)N(c2c(F)c(OC)cc(OC)c2F)Cc2cnc3[nH]c(CN4CCOCC4)cc3c21 [pemigatinib] here?
Its cell viability is 0.862.

Which cell viability does the source give for `C[C@H](CCC(=O)O)[C@H]1CC[C@H]2[C@@H]3[C@H](O)C[C@@H]4C[C@H](O)CC[C@]4(C)[C@H]3CC[C@]12C` [Chenodeoxycholic Acid] + CCN1C(=O)N(c2c(F)c(OC)cc(OC)c2F)Cc2cnc3[nH]c(CN4CCOCC4)cc3c21 [pemigatinib] here?
The cell viability was 0.958.

With `CC[C@H](C)C(=O)O[C@H]1CCC=C2C=C[C@H](C)[C@H](CC[C@@H]3C[C@@H](O)CC(=O)O3)[C@H]21` [Mevastatin] + CCN1C(=O)N(c2c(F)c(OC)cc(OC)c2F)Cc2cnc3[nH]c(CN4CCOCC4)cc3c21 [pemigatinib] as the compound, how does the cell viability read?
The cell viability was 0.947.

`Cc1ccccc1CN1C2=NCCN2C(=O)C2=C1CCN(Cc1ccccc1)C2` [TIC10 Analogue] + CCN1C(=O)N(c2c(F)c(OC)cc(OC)c2F)Cc2cnc3[nH]c(CN4CCOCC4)cc3c21 [pemigatinib] was tested. Which cell viability did it give?
Its cell viability is 0.97.

Which cell viability does the source give for `Nc1cc(C(Cl)=C(Cl)Cl)c(S(N)(=O)=O)cc1S(N)(=O)=O` [Clorsulon] + CCN1C(=O)N(c2c(F)c(OC)cc(OC)c2F)Cc2cnc3[nH]c(CN4CCOCC4)cc3c21 [pemigatinib] here?
The cell viability was 0.988.

For `COc1ccc(F)c(F)c1C(=O)c1cnc(NC2CCN(S(C)(=O)=O)CC2)nc1N` + CCN1C(=O)N(c2c(F)c(OC)cc(OC)c2F)Cc2cnc3[nH]c(CN4CCOCC4)cc3c21 [pemigatinib], which cell viability is on record?
The cell viability was 0.691.

Which cell viability does the source give for `CCCCC(F)(F)[C@@]1(O)CC[C@H]2[C@@H](CC(=O)[C@@H]2CCCCCCC(=O)O)O1` [Lubiprostone] + CCN1C(=O)N(c2c(F)c(OC)cc(OC)c2F)Cc2cnc3[nH]c(CN4CCOCC4)cc3c21 [pemigatinib] here?
The cell viability was 0.996.

How did the cell viability turn out when `CCOC(=O)[C@H](CCc1ccccc1)N[C@H]1CS[C@H](c2cccs2)CN(CC(=O)O)C1=O` [Temocapril HCl] + CCN1C(=O)N(c2c(F)c(OC)cc(OC)c2F)Cc2cnc3[nH]c(CN4CCOCC4)cc3c21 [pemigatinib] was run?
The cell viability was 1.04.

With `CCC(=O)O[C@]1(C(=O)CCl)[C@@H](C)C[C@H]2[C@@H]3CCC4=CC(=O)C=C[C@]4(C)[C@@]3(F)[C@@H](O)C[C@@]21C` [Clobetasol propionate] + CCN1C(=O)N(c2c(F)c(OC)cc(OC)c2F)Cc2cnc3[nH]c(CN4CCOCC4)cc3c21 [pemigatinib] as the compound, how does the cell viability read?
The cell viability was 0.925.

With `O=C1C[C@@H](c2ccc(O)cc2)Oc2cc(O)cc(O)c21` [Naringenin] + CCN1C(=O)N(c2c(F)c(OC)cc(OC)c2F)Cc2cnc3[nH]c(CN4CCOCC4)cc3c21 [pemigatinib] as the compound, how does the cell viability read?
The cell viability was 0.92.

How did the cell viability turn out when `O=S(=O)(O)c1cc(O)ccc1O` [Ethamsylate] + CCN1C(=O)N(c2c(F)c(OC)cc(OC)c2F)Cc2cnc3[nH]c(CN4CCOCC4)cc3c21 [pemigatinib] was run?
Its cell viability is 0.979.

With `CC(=O)Nc1nc(C)c(-c2ccc(Cl)c(S(=O)(=O)NCCO)c2)s1` + CCN1C(=O)N(c2c(F)c(OC)cc(OC)c2F)Cc2cnc3[nH]c(CN4CCOCC4)cc3c21 [pemigatinib] as the compound, how does the cell viability read?
The cell viability was 0.937.

`COc1ccc(C2CNC(=O)C2)cc1OC1CCCC1` (configuration not stated) [Rolipram] + CCN1C(=O)N(c2c(F)c(OC)cc(OC)c2F)Cc2cnc3[nH]c(CN4CCOCC4)cc3c21 [pemigatinib] was tested. Which cell viability did it give?
Its cell viability is 1.02.

For `O=c1c(O)c(-c2ccc(O)cc2O)oc2cc(O)cc(O)c12` [Morin Hydrate] + CCN1C(=O)N(c2c(F)c(OC)cc(OC)c2F)Cc2cnc3[nH]c(CN4CCOCC4)cc3c21 [pemigatinib], which cell viability is on record?
Its cell viability is 0.947.

How did the cell viability turn out when `OC[C@H]1O[C@@H](Oc2cc(O)cc(/C=C/c3ccc(O)cc3)c2)[C@H](O)[C@@H](O)[C@@H]1O` [Polydatin] + CCN1C(=O)N(c2c(F)c(OC)cc(OC)c2F)Cc2cnc3[nH]c(CN4CCOCC4)cc3c21 [pemigatinib] was run?
Its cell viability is 0.906.
